Test results reported in paper PMC9911399, “Two distinct binding modes provide the RNA-binding protein RbFox with extraordinary sequence specificity”.
Changes are numbered by the printed parent chain; changes in the protein carry UniProt numbers. The list shows a part of the results.

T1: RBFOX1 RRM RbFoxmut (Fox-RRM*) (Homo sapiens, UniProt Q9NWB1 109-208, R118D;E147R;N151S;E152T)
T1 sequence: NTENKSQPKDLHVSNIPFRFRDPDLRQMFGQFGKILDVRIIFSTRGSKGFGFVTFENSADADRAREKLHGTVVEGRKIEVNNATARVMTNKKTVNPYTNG

B1: AGGUUCG (DNA:RNA)
RNA: GGGAGACCGGAAUUCAGAUUGUCCAGGUUCGUUAAAUCCCGUCGUAGCCACCA
DNA 1: CAATCTGAATTCCGGTCTCCC
DNA 2: TGGTGGCTACGACGGGATT
B2: UAUCCUU (DNA:RNA)
RNA: GGGAGACCGGAAUUCAGAUUGUCCUAUCCUUUUAAAUCCCGUCGUAGCCACCA
DNA 1: CAATCTGAATTCCGGTCTCCC
DNA 2: TGGTGGCTACGACGGGATT
B3: AGGCGGC (DNA:RNA)
RNA: B1 RNA with U28C, U29G, C30G, G31C
DNA 1: CAATCTGAATTCCGGTCTCCC
DNA 2: TGGTGGCTACGACGGGATT
B4: UCUCCUA (DNA:RNA)
RNA: B2 RNA with A26C, U31A
DNA 1: CAATCTGAATTCCGGTCTCCC
DNA 2: TGGTGGCTACGACGGGATT
B5: CUAGAAG (DNA:RNA)
RNA: B1 RNA with A25C, G26U, G27A, U28G, U29A, C30A
DNA 1: CAATCTGAATTCCGGTCTCCC
DNA 2: TGGTGGCTACGACGGGATT
B6: GGGAGCG (DNA:RNA)
RNA: B1 RNA with A25G, U28A, U29G
DNA 1: CAATCTGAATTCCGGTCTCCC
DNA 2: TGGTGGCTACGACGGGATT
B7: UCUCACU (DNA:RNA)
RNA: B2 RNA with A26C, C29A, U30C
DNA 1: CAATCTGAATTCCGGTCTCCC
DNA 2: TGGTGGCTACGACGGGATT
B8: UAAUCUG (DNA:RNA)
RNA: B2 RNA with U27A, C28U, U31G
DNA 1: CAATCTGAATTCCGGTCTCCC
DNA 2: TGGTGGCTACGACGGGATT
B9: CGAGAGU (DNA:RNA)
RNA: B1 RNA with A25C, G27A, U28G, U29A, C30G, G31U
DNA 1: CAATCTGAATTCCGGTCTCCC
DNA 2: TGGTGGCTACGACGGGATT
B10: UGGUAUU (DNA:RNA)
RNA: B1 RNA with A25U, U29A, C30U, G31U
DNA 1: CAATCTGAATTCCGGTCTCCC
DNA 2: TGGTGGCTACGACGGGATT
B11: CAAAGAU (DNA:RNA)
RNA: B2 RNA with U25C, U27A, C28A, C29G, U30A
DNA 1: CAATCTGAATTCCGGTCTCCC
DNA 2: TGGTGGCTACGACGGGATT
B12: CAGACCG (DNA:RNA)
RNA: B1 RNA with A25C, G26A, U28A, U29C
DNA 1: CAATCTGAATTCCGGTCTCCC
DNA 2: TGGTGGCTACGACGGGATT
B13: GCAGCCU (DNA:RNA)
RNA: B2 RNA with U25G, A26C, U27A, C28G, U30C
DNA 1: CAATCTGAATTCCGGTCTCCC
DNA 2: TGGTGGCTACGACGGGATT
B14: UGAGCCC (DNA:RNA)
RNA: B1 RNA with A25U, G27A, U28G, U29C, G31C
DNA 1: CAATCTGAATTCCGGTCTCCC
DNA 2: TGGTGGCTACGACGGGATT
B15: AACGGCG (DNA:RNA)
RNA: B1 RNA with G26A, G27C, U28G, U29G
DNA 1: CAATCTGAATTCCGGTCTCCC
DNA 2: TGGTGGCTACGACGGGATT
B16: AAGAAUA (DNA:RNA)
RNA: B1 RNA with G26A, U28A, U29A, C30U, G31A
DNA 1: CAATCTGAATTCCGGTCTCCC
DNA 2: TGGTGGCTACGACGGGATT
B17: ACUUGUC (DNA:RNA)
RNA: B1 RNA with G26C, G27U, U29G, C30U, G31C
DNA 1: CAATCTGAATTCCGGTCTCCC
DNA 2: TGGTGGCTACGACGGGATT
B18: AGCAGAA (DNA:RNA)
RNA: B1 RNA with G27C, U28A, U29G, C30A, G31A
DNA 1: CAATCTGAATTCCGGTCTCCC
DNA 2: TGGTGGCTACGACGGGATT
B19: GACUCCU (DNA:RNA)
RNA: B2 RNA with U25G, U27C, C28U, U30C
DNA 1: CAATCTGAATTCCGGTCTCCC
DNA 2: TGGTGGCTACGACGGGATT
B20: AAUUCAU (DNA:RNA)
RNA: B2 RNA with U25A, C28U, U30A
DNA 1: CAATCTGAATTCCGGTCTCCC
DNA 2: TGGTGGCTACGACGGGATT
B21: CUGUCUA (DNA:RNA)
RNA: B1 RNA with A25C, G26U, U29C, C30U, G31A
DNA 1: CAATCTGAATTCCGGTCTCCC
DNA 2: TGGTGGCTACGACGGGATT
B22: UAGUGAG (DNA:RNA)
RNA: B1 RNA with A25U, G26A, U29G, C30A
DNA 1: CAATCTGAATTCCGGTCTCCC
DNA 2: TGGTGGCTACGACGGGATT
B23: AGAGCUC (DNA:RNA)
RNA: B1 RNA with G27A, U28G, U29C, C30U, G31C
DNA 1: CAATCTGAATTCCGGTCTCCC
DNA 2: TGGTGGCTACGACGGGATT
B24: GGCAAAC (DNA:RNA)
RNA: B1 RNA with A25G, G27C, U28A, U29A, C30A, G31C
DNA 1: CAATCTGAATTCCGGTCTCCC
DNA 2: TGGTGGCTACGACGGGATT
B25: CCUGCAA (DNA:RNA)
RNA: B2 RNA with U25C, A26C, C28G, U30A, U31A
DNA 1: CAATCTGAATTCCGGTCTCCC
DNA 2: TGGTGGCTACGACGGGATT
B26: AAGAAUG (DNA:RNA)
RNA: B1 RNA with G26A, U28A, U29A, C30U
DNA 1: CAATCTGAATTCCGGTCTCCC
DNA 2: TGGTGGCTACGACGGGATT
B27: GACUUUA (DNA:RNA)
RNA: B1 RNA with A25G, G26A, G27C, C30U, G31A
DNA 1: CAATCTGAATTCCGGTCTCCC
DNA 2: TGGTGGCTACGACGGGATT
B28: UAGUUUC (DNA:RNA)
RNA: B1 RNA with A25U, G26A, C30U, G31C
DNA 1: CAATCTGAATTCCGGTCTCCC
DNA 2: TGGTGGCTACGACGGGATT
B29: CGGCUUA (DNA:RNA)
RNA: B1 RNA with A25C, U28C, C30U, G31A
DNA 1: CAATCTGAATTCCGGTCTCCC
DNA 2: TGGTGGCTACGACGGGATT
B30: GGAGUAA (DNA:RNA)
RNA: B1 RNA with A25G, G27A, U28G, C30A, G31A
DNA 1: CAATCTGAATTCCGGTCTCCC
DNA 2: TGGTGGCTACGACGGGATT
B31: UAGGUGU (DNA:RNA)
RNA: B2 RNA with U27G, C28G, C29U, U30G
DNA 1: CAATCTGAATTCCGGTCTCCC
DNA 2: TGGTGGCTACGACGGGATT

target: T1, RBFOX1 RRM RbFoxmut (Fox-RRM*); assay: EMSA; HiTS-Eq, 1 nM pool, 10 min; buffer printed only for the single-RNA assays: 10 mM Tris pH 7.5, 150 mM NaCl, 3.4 mM EDTA, 0.001% NP-40, 30 C; details: tags: His6 N-terminal (pET28a); label: 5' 32P
How it was run: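 Purified wild-type or mutant RbFox RRM at increasing concentrations was equilibrated with 1 nM of 5′-radiolabelled RNA carrying 7 randomized nucleotides for 10 min in 50 µL. Unbound RNA was separated by 8% native PAGE and sequenced. Relative association constants came from read-count changes of each RNA species compared with the control reaction, normalised to the cognate motif.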

Binder | binding signal
B1 | 0.357 KA relative to UGCAUGU
B2 | 0.0808 KA relative to UGCAUGU
B3 | 0.114 KA relative to UGCAUGU
B4 | 0.07 KA relative to UGCAUGU
B5 | 0.0909 KA relative to UGCAUGU
B6 | 0.142 KA relative to UGCAUGU
B7 | 0.118 KA relative to UGCAUGU
B8 | 0.0516 KA relative to UGCAUGU
B9 | 0.11 KA relative to UGCAUGU
B10 | 0.117 KA relative to UGCAUGU
B11 | 0.0829 KA relative to UGCAUGU
B12 | 0.0774 KA relative to UGCAUGU
B13 | 0.0566 KA relative to UGCAUGU
B14 | 0.0744 KA relative to UGCAUGU
B15 | 0.113 KA relative to UGCAUGU
B16 | 0.132 KA relative to UGCAUGU

Binder | binding signal
B17 | 0.224 KA relative to UGCAUGU
B18 | 0.128 KA relative to UGCAUGU
B19 | 0.0649 KA relative to UGCAUGU
B20 | 0.0962 KA relative to UGCAUGU
B21 | 0.119 KA relative to UGCAUGU
B22 | 0.109 KA relative to UGCAUGU
B23 | 0.0741 KA relative to UGCAUGU
B24 | 0.0591 KA relative to UGCAUGU
B25 | 0.0957 KA relative to UGCAUGU
B26 | 1.07 KA relative to UGCAUGU
B27 | 0.123 KA relative to UGCAUGU
B28 | 0.126 KA relative to UGCAUGU
B29 | 0.112 KA relative to UGCAUGU
B30 | 0.0983 KA relative to UGCAUGU
B31 | 0.155 KA relative to UGCAUGU
